From the supplement of paper PMC10126150
Sequences with one replicate were seen in a single cluster, so their values are uncertain.

Test system: ATP
Experiment: switch fluorescence ratio, 500 uM ATP over buffer (Cy3 cluster intensity, sum of 5 cycles each) (fold (ratio)); higher = stronger signal-on switching upon ATP binding; sequences stand for … in TCGTCGGCAGCGTCAGATGTGTATAAGAGACAGTTTTTTTTTTTTTTTTTTTTTTTTT…TC
Details: aptamer strand: ATP DNA aptamer (quencher-CACCTGGGGGAGTATTGCGGAGGAAGG + anchor), 100 nM annealed; ATP concentration: 500 uM; one replicate
Outline: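 Cy3-labelled switching-strand clusters on a modified Illumina MiSeq flow-cell were annealed to 100 nM quencher-labelled ATP aptamer and imaged first in selection buffer, then after 15 min with 500 uM ATP at 22 °C. NaOH stripping and re-annealing separated each of five buffer/ATP cycles, and clusters outside 100-1000 RFU were excluded. The fluorescence ratio sums target-cycle Cy3 intensity over buffer-cycle Cy3 intensity per cluster and averages it per switch-domain sequence.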
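Also: ATP exposure 15 min at 22 °C before imaging.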

Sequence | switch fluorescence ratio
GAGTAGATGG | 1.02
GATAAGTTAG | 1.01
AATTCCAGCA | 1.05
CGTTCCAATG | 1.15
GCCCGTAGTC | 1.05
TTCTGTAGTT | 1.01
TCCGAATTGT | 0.993
TATGTATGGG | 1.02
GAGCTAGCGT | 0.971
CCATGGTAGA | 0.993
ACGTTCGAGC | 1.1
CCCCTCAA | 2.6
CAGGAGTACT | 1.03
TGAAGTACCG | 1.04
GATGTTCTCT | 1
GTGAGCTCGA | 1.01
TACGCCGGTT | 0.95
TAGATAGGAC | 1.01
TCCCGAAGTT | 1.08
CTCGGGCCGG | 1
AAGTCGGCGG | 0.991
GATGGATATG | 1.01
TAAGATAGGT | 1.12
CGTTTTCGTC | 0.912
ATGTCCTGGA | 0.96

Sequence | switch fluorescence ratio
TTATGAACCT | 1.77
ACGCGTGCGG | 0.991
TTTGCTCACT | 1.03
CGAAACAACT | 0.99
CGAGGCTTCG | 0.994
AATGTCCAGC | 1.03
TAGAAATCCT | 1.17
TTTATGTTAC | 1.08
TGTTGTAAGA | 0.984
CAGAAAGTGT | 1.01
ATGGCCGGCG | 1.17
ACGACTATGG | 0.967
GTATATACTT | 1.03
AATCAGCGGA | 1.01
ATACTGGTGG | 1.03
ATAGTCCTTG | 0.954
CTAGTTGCAC | 0.982
ACGTGTAAGA | 0.962
CGGTGCGAGG | 0.967
GGTTTATTA | 1.02
GAGCGTGTTG | 0.961
GTTTAGGATG | 1.01
TTCGGAGGAA | 1.28
GGGTTGCAGG | 1.01
ACTCGGAGCT | 1.15

Sequence | switch fluorescence ratio
AGGAAGCGTT | 0.971
GCAGGGCCTG | 0.988
AGGGACTTGC | 0.975
GAACAGCATG | 0.95
GATCGTGCTT | 0.975
GGGGTCACCC | 1.03
TTGGCTGTTC | 1.07
TGAGCTCTTT | 1.04
TTCTTGCTAT | 1.38
CTTGGCCCAA | 1.02
AGCCCAAAAG | 1.01
TCTTGGAGCG | 1.04
TTCCCGGT | 1
TGTGAGTAGT | 0.968
TAGTCATTGT | 1
GGCTGAGGAA | 1.05
TCGGTCTTT | 0.994
GTTGGAAAAA | 0.947
TACCAGCTTT | 1.01
GTGCTCACAG | 0.995
GGGCGATATT | 1.01
GCCAAGTAGG | 0.997
GGGTCAGAC | 1
GACCAAGCAT | 1.27
CGGTATCAAA | 0.993

Sequence | switch fluorescence ratio
CACGAATATT | 1.04
TCTTTCGGCT | 1.19
AAAAACACTC | 1.12
GAATGAGTTT | 0.979
TAGCTTGACA | 1.01
GAAAGCCGCA | 1.08
TTTTGAATTC | 0.973
TGTTCGAAAT | 1.02
TGGTTGTATT | 3.23
AGAGAGTCTT | 0.956
GGACCAATTC | 1.13
ATGATCGACC | 1
TGTTACTTAC | 1.26
CAGTAGTGGT | 0.979
ACTAATGTAC | 1.13
CACCAGCCAG | 1.07
ATGGTAATGT | 0.972
TCGGGCGCGG | 1.01
GTTTAGTCTT | 1.02
GTTGTTCTGT | 0.964
GCTGTTTCCT | 1
ATCAGGGCCT | 0.99
CACGTCGGGA | 0.973
CGGTTCGATT | 1.03
ACCGGCAGTG | 1.02

Sequence | switch fluorescence ratio
CAGGTAATA | 1.04
TCGGGCAGCT | 0.979
ACATATTCTC | 1.02
TCTCAAGTGT | 0.992
CTAGTAATTC | 1.27
ACGGCTAGAG | 1.06
GCAGTAGGAC | 1.45
TATAGTACTC | 1.05
GTTGTCGCCT | 1.05
TATGTGTCTT | 0.987
CATTGTTCAA | 1.01
GCAGTTCTCT | 1.03
GATCCAGTCG | 1
CGGCTTTCCT | 1.03
ACAGTCGGGT | 1.02
GCTTAGAGGT | 0.994
CACAGTTCCC | 1.02
AACTGTGTGG | 0.962
CGCAAAGAGC | 1.32
CCTCACGACA | 3.24
AGCACCTTGG | 1
TTCCATCGAC | 1.09
ACCAATACGA | 3.59
TTGCGTCGCG | 0.976
CTGCTTAGGT | 1.01

Sequence | switch fluorescence ratio
TTTGTGGCAA | 3.45
CCTTGTAGAT | 1.01
GGAACGGGCG | 1.03
ACGAACCGGG | 1.17
CTTAATACGG | 1.03
TTGTTGCGGT | 0.983
TAGGAGTCTG | 1.02
CGGCGTAAT | 1.01
TTAACATGCT | 1.04
GTGGAGACC | 1.03
CACTTCCGGA | 1.12
CGGAGGAGAA | 1.04
ATTTACGCTT | 1.04
TCCGACCTCT | 1.88
TCTCGTAGTT | 1.03
CGACCTACTC | 2.5
TAATGCCAA | 0.978
ATTCTTGTCC | 1.03
AAGACGGAGC | 1.16
AGCCTCGCGG | 1
GTGATGTGAG | 1
ACTCGGATTT | 0.986
ACCAAGAGAA | 1.06
AAGATCGCTC | 0.971
GCAGGTTTAA | 1.01

Sequence | switch fluorescence ratio
GCCCTCGAAG | 0.997
GACTGCGGTT | 1
TAGTAGTAT | 0.99
TTCGAATAGG | 1
AGGGCAAGGG | 1.03
CGGCTCTCTG | 0.988
TTTATGTTAA | 1.02
CCCTTCCTAG | 1.96
CACGCAATCG | 4.52
ATAAGAGAGT | 1.02
GCGCTAAGGC | 1.07
GTGTTGCTGG | 0.997
TAGTCATTCT | 0.997
GTGATTACCG | 1.04
CCTATGTCTT | 1.04
CTATGGATGG | 1
CCGCGGAGCT | 1.18
GGGCAGGT | 1.03
TCGTTCCCAA | 1.03
ATTTAGCCAT | 1.01
TGACTGACTG | 0.983
TGCGTTGATG | 1.04
AACCGACCTT | 1.54
ACACTGCACT | 1.51
CTTGGTCGAA | 0.945

Sequence | switch fluorescence ratio
CCTCAGTATG | 1.35
AATTATTGGA | 0.955
AAAGTCCGTT | 0.99
GGGACTTTTC | 1.02
CTGTCACAGA | 1.01
GCCGGCCTAC | 1.03
AGGCTGTCTG | 1.03
AGTGTAGACT | 0.96
CCGGGTCACA | 1.19
ACCCTCTGTG | 1.12
GTTTGCCGGC | 1.03
ACTTGGTAGA | 0.969
CTACTTCTCA | 1.05
CCGTGCTTT | 1.12
CACGGGTGTG | 1.07
TCTCGATGTT | 1.01
TTTTGTAGAG | 0.984
TTATTGAAGG | 0.957
AGTTTACACG | 0.97
AATAGAACGC | 1.01
ATGCATTTAA | 0.979
ACGCAGCTT | 2.15
ATTTATCCAT | 1.03
CATTGTTTGC | 1
GGGCCCGTTA | 1.03
